# According to PubChem BioAssay (NCATS):
# Where “and” joins values, the source holds several entries; their conditions need not be identical. Equal entries are not always repeated. Inconclusive results, whose numbers are uncertain, are shown with a selection of clear calls. For some of these results: Potencies beside an inconclusive call are fits to weak or partial responses and may not hold up. Calls of active or inactive are those of the source. Calls follow the shape of the dose curve; as a rule, active = well fitted curve in the direction sought with a large enough effect; inconclusive = small, poorly fitted or top-dose-only effect, or another doubt; inactive = no such curve, though single readings can be large; an effect the other way counts as inactive or inconclusive. Square brackets hold non-standard residues; d marks the D form. Peptide text beside a SMILES is read from it. Hyp = O=C(O)[CH]1C[CH](O)CN1; Phe(ol) = N[CH](CO)Cc1ccccc1; Iva = CC[C](C)(N)C(=O)O; Aib = CC(C)(N)C(=O)O
# Columns and labels:
# [1] = Primary qHTS for inhibitors of nuclear receptor binding SET domain protein 2 (NSD2) in an RCH-ACV wild type WT cells (2C) (AID 1645877); details: activity change, negative = cell killing: at 44.9 µM (top of the series) unless noted; also: nearly all actives have a fitted effect of over 70% in size; as to activity change, negative = cell killing: % is scaled to controls: 0 for no effect and ±100 for the full control effect
# [2] = system: CRL-7250; assay: Cytotoxic Profiling of Annotated Libraries Using Quantitative High-Throughput Screening (AID 1296008); details: Five cell lines viability, CellTiter-Glo ATP luminescence, 48-72 h; max response: stronger effect = lower value; also: nearly all actives have a fitted effect of over 60% in size
# Method in brief: (§1)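 Cytotoxicity was measured as CellTiter-Glo ATP luminescence, read after 10 min at room temperature. Compound treatment of the cells lasted 48 or 72 hr at 37 degrees Celsius in a qHTS format.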
# [3] = system: HaCat; assay: as above; details: Five cell lines viability, CellTiter-Glo ATP luminescence, 48-72 h; max response: stronger effect = lower value
# Method in brief: as §1
# [4] = system: KB-3-1; assay: as above; details: Five cell lines viability, CellTiter-Glo ATP luminescence, 48-72 h; max response: stronger effect = lower value
# Method in brief: as §1
# [5] = system: CAOV3; assay: Primary qHTS to identify gynecologic anti-cancer compounds using libraries of approved drugs and bioactive compounds (AID 1345084); details: Gynecologic cancer cell panel viability, ATPlite luminescence, 48 h; activity change, negative = cytotoxicity: at 57.5 µM (top of the series); also: nearly all actives have a fitted effect of over 55% in size; as to activity change, negative = cytotoxicity: % is scaled to controls: 0 for no effect and ±100 for the full control effect
# Method in brief: (§2)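 Measured: luminescence after ATPlite addition (15 min, RT). Exposure: 48 h, 37 C, 5% CO2.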
# [6] = system: OV90; assay: as above; details: Gynecologic cancer cell panel viability, ATPlite luminescence, 48 h; series mostly up to 57.5 µM
# Method in brief: as §2
# [7] = system: PA-1; assay: as above; details: Gynecologic cancer cell panel viability, ATPlite luminescence, 48 h; series mostly up to 57.5 µM
# Method in brief: as §2
# [8] = system: SKOV3; assay: as above; details: Gynecologic cancer cell panel viability, ATPlite luminescence, 48 h; series mostly up to 57.5 µM
# Method in brief: as §2
# [9] = system: Tov-21-G; assay: as above; details: Gynecologic cancer cell panel viability, ATPlite luminescence, 48 h; activity change, negative = cytotoxicity: at 57.5 µM (top of the series) unless noted
# Method in brief: as §2
# [10] = system: Tov112D; assay: as above; details: Gynecologic cancer cell panel viability, ATPlite luminescence, 48 h; series mostly up to 57.5 µM
# Method in brief: as §2
# [11] = P-glycoprotein substrates identified in KB-8-5-11 adenocarcinoma cell line, qHTS therapeutic library screen (AID 1346987); also: nearly all actives have a fitted effect of over 65% in size
# Method in brief: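 Steps: plate 500 KB-8-5-11 cells/well in DMEM + 10% FCS (colchicine removed); pin compounds in dose-response; incubate 72 h, 37 degree C, 5% CO2; add CellTiter-Glo, 5 min; read luminescence.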
# [12] = system: Zika virus NS2B-NS3 protease (unlinked complex); assay: Primary screen GU Rhodamine qHTS for Zika virus inhibitors: Unlinked NS2B-NS3 protease assay (AID 1347159); also: nearly all actives have a fitted effect of over 60% in size
# Method in brief: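 A qHTS format was used, with compound concentrations ranging up to 114 microM. Each compound was preincubated with 25 nM NS2B-NS3 protease, and the substrate was then added at 1.5 microM. Curves were fitted with a 4-parameter Hill model.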
# [13] = system: CASKI; assay: Primary qHTS to identify gynecologic anti-cancer compounds using libraries of approved drugs and bioactive compounds (AID 1345084); details: Gynecologic cancer cell panel viability, ATPlite luminescence, 48 h; series mostly up to 57.5 µM; also: nearly all actives have a fitted effect of over 55% in size; as to activity change, negative = cytotoxicity: % is scaled to controls: 0 for no effect and ±100 for the full control effect
# Method in brief: as §2
# [14] = system: Hek293T; assay: as above; details: Gynecologic cancer cell panel viability, ATPlite luminescence, 48 h, control line for the selectivity index; activity change, negative = cytotoxicity: at 57.5 µM (top of the series) unless noted
# Method in brief: as §2
# [15] = system: Es-2; assay: as above; details: Gynecologic cancer cell panel viability, ATPlite luminescence, 48 h; series mostly up to 57.5 µM
# Method in brief: as §2
# [16] = system: HeLa; assay: as above; details: Gynecologic cancer cell panel viability, ATPlite luminescence, 48 h; activity change, negative = cytotoxicity: at 57.5 µM (top of the series)
# Method in brief: as §2
# [17] = system: JEG-3; assay: as above; details: Gynecologic cancer cell panel viability, ATPlite luminescence, 48 h; series mostly up to 57.5 µM
# Method in brief: as §2
# [18] = Primary qHTS for inhibitors of nuclear receptor binding SET domain protein 2 (NSD2) in an isogenic RCH-ACV NSD2 p.E1099K mutant (9B) (AID 1645876); also: nearly all actives have a fitted effect of over 70% in size
# [19] = system: NIH3T3; assay: Cytotoxic Profiling of Annotated Libraries Using Quantitative High-Throughput Screening (AID 1296008); details: Five cell lines viability, CellTiter-Glo ATP luminescence, 48-72 h; max response: stronger effect = lower value; also: nearly all actives have a fitted effect of over 60% in size
# Method in brief: as §1
# [20] = system: C33A; assay: Primary qHTS to identify gynecologic anti-cancer compounds using libraries of approved drugs and bioactive compounds (AID 1345084); details: Gynecologic cancer cell panel viability, ATPlite luminescence, 48 h; series mostly up to 57.5 µM; also: nearly all actives have a fitted effect of over 55% in size; as to activity change, negative = cytotoxicity: % is scaled to controls: 0 for no effect and ±100 for the full control effect
# Method in brief: as §2
# Potency is read from the fitted curve at half-maximal effect; tags tell the direction and shape of the fitted curve.
smiles,measurement,setting,value
CCC(C)(NC(=O)C(CCC(N)=O)NC(=O)C1CC(O)CN1C(=O)C(C)(C)NC(=O)C(C)(C)NC(=O)C(CC(C)C)NC(=O)CNC(=O)C(NC(=O)C(C)(C)NC(=O)C(C)(C)NC(=O)C(C)(C)NC(=O)C(Cc1ccccc1)NC(C)=O)C(C)C)C(=O)N1CC(O)CC1C(=O)NC(C)(C)C(=O)NC(CO)Cc1ccccc1 (configuration not stated) (Ac-F[Aib][Aib][Aib]VGL[Aib][Aib][Hyp]Q[Iva][Hyp][Aib][Phe(ol)]; configuration not given here),"activity change, negative = cell killing",[1],inactive: -29.8% [at 9.23 µM]
same,Potency,[2],"inconclusive: 2.75 µM [inhibitor, single point]"
same,outcome,[3],inactive
same,Potency,[4],"inconclusive: 2.45 µM [inhibitor, single point]"
same,"activity change, negative = cytotoxicity",[5],inactive: -2.26% [at 6.55 µM]
same,"activity change, negative = cytotoxicity",[6],inactive: -17.1% [at 6.55 µM]
same,Potency,[7],"inconclusive: 7.08 µM [cytotoxic, partial curve, poor fit]"
same,Potency,[8],"inconclusive: 6.31 µM [rising, single point]"
same,Potency,[9],"inconclusive: 2.82 µM [cytotoxic, single point]"
same,Potency,[10],"inconclusive: 6.31 µM [cytotoxic, single point]"
C=C1C(=O)O[C@@H]2CC(C)=C([C@@H](C)CCCO)[C@@H](OC(=O)C(C)C)[C@H]12,Potency,[11],"inconclusive: 12.8 µM [inhibitor, single point]"
same,Potency,[12],"inconclusive: 15.8 µM [inhibitor, full curve]"
same,Potency,[1],active: 14.2 µM
same,Potency,[2],"inconclusive: 11.4 µM [inhibitor, single point]"
same,Potency,[3],"inconclusive: 20.2 µM [inhibitor, single point]"
same,Potency,[4],"inconclusive: 18 µM [inhibitor, single point]"
same,Potency,[13],"inconclusive: 28.2 µM [cytotoxic, single point]"
same,Potency,[14],"inconclusive: 10 µM [cytotoxic, partial curve]"
same,Potency,[7],"inconclusive: 31.6 µM [cytotoxic, single point]"
same,Potency,[8],"inconclusive: 12.6 µM [cytotoxic, partial curve, poor fit]"
same,Potency,[9],"inconclusive: 12.6 µM [cytotoxic, single point]"
same,Potency,[10],"inconclusive: 31.6 µM [cytotoxic, single point]"
CC[C@@H](C)[C@@H]1OC2(C=C[C@H]1C)C[C@@H]1C[C@H](C/C=C(\C)[C@H](O[C@H]3C[C@H](OC)[C@H](O[C@H]4C[C@H](OC)[C@H](NC(C)=O)[C@H](C)O4)[C@H](C)O3)[C@H](C)/C=C/C=C3\CO[C@H]4[C@H](O)C(C)=C[C@@H](C(=O)O1)[C@@]34O)O2 (some centres not stated),Potency,[11],active: 10.1 µM
same,Potency,[2],"inconclusive: 14.3 µM [inhibitor, single point]"
same,Potency,[3],"inconclusive: 16.1 µM [inhibitor, single point]"
same,Potency,[4],"inconclusive: 20.2 µM [inhibitor, single point]"
same,Potency,[15],inactive
same,Potency,[16],"inconclusive: 28.2 µM [cytotoxic, single point]"
same,Potency,[14],"inconclusive: 11.2 µM [cytotoxic, single point]"
same,Potency,[17],"inconclusive: 22.4 µM [rising, single point]"
same,Potency,[7],"inconclusive: 28.2 µM [cytotoxic, single point]"
same,Potency,[8],"inconclusive: 11.2 µM [cytotoxic, single point]"
same,Potency,[10],inactive
CC(C)[C@@H](CS(=O)(=O)C(C)C)N1C(=O)[C@@](C)(CC(=O)O)C[C@H](c2cccc(Cl)c2)[C@H]1c1ccc(Cl)cc1,Potency,[11],"inconclusive: 29.1 µM [inhibitor, single point]"
same,Potency,[12],active: 28.2 µM
same,Potency,[18],active: 1.15 µM and active: 833 nM
same,Potency,[2],active: 5.8 µM and active: 1.86 µM
same,Potency,[3],"inconclusive: 37.1 µM [inhibitor, single point]"
same,Potency,[4],"inconclusive: 23.1 µM [inhibitor, single point]"
same,Potency,[8],"inconclusive: 1.58 µM [cytotoxic, single point]"
same,Potency,[9],"inconclusive: 1.58 µM [cytotoxic, full curve]"
C=C1[C@@H](C)[C@H]2[C@H](Cc3c[nH]c4ccccc34)NC(=O)[C@]23C(=O)/C=C/C(=O)[C@H](O)/C(C)=C\[C@@H](C)C/C=C/[C@H]3[C@@H]1O,Potency,[2],"inconclusive: 8.93 µM [inhibitor, single point]"
same,Potency,[3],"inconclusive: 2.24 µM [inhibitor, full curve]"
same,Potency,[4],"inconclusive: 14.2 µM [inhibitor, single point]"
same,Potency,[16],"inconclusive: 20 µM [cytotoxic, single point]"
same,Potency,[8],"inconclusive: 12.6 µM [cytotoxic, single point]"
same,Potency,[9],"inconclusive: 6.31 µM [cytotoxic, partial curve]"
C#CC[C@H](c1nc2cc(Cl)ccc2c(=O)n1Nc1ccccc1)N(CCCN)C(=O)c1cccc(Cl)c1F,Potency,[11],"inconclusive: 23.1 µM [inhibitor, single point]"
same,Potency,[12],inactive
same,Potency,[2],"inconclusive: 0.517 µM [inhibitor, partial curve, poor fit]"
same,Potency,[3],"inconclusive: 7.31 µM [inhibitor, partial curve, poor fit]"
same,Potency,[19],active: 10.3 µM
same,Potency,[20],"inconclusive: 20 µM [cytotoxic, partial curve, poor fit]"
same,Potency,[5],"inconclusive: 1.12 µM [cytotoxic, single point]"
same,Potency,[13],"inconclusive: 12.6 µM [cytotoxic, partial curve, poor fit]"
same,Potency,[15],active: 7.94 µM
same,Potency,[16],active: 3.16 µM
same,Potency,[14],active: 14.1 µM
same,Potency,[17],"inconclusive: 1.58 µM [cytotoxic, partial curve, poor fit]"
same,Potency,[7],"inconclusive: 1.26 µM [cytotoxic, full curve, poor fit]"
same,Potency,[8],"inconclusive: 35.5 µM [cytotoxic, partial curve, poor fit]"
same,Potency,[9],"inconclusive: 3.16 µM [cytotoxic, partial curve, poor fit]"
same,Potency,[10],active: 0.355 µM
CC(O)(C(=O)C1CC1(CO)COC1OC(CO)C(O)C(O)C1O)C1C(O)CC2C3CC=C4CC(O)CC(O)C4(C)C3C(O)CC21C (configuration not stated),Potency,[11],active: 0.611 µM
same,Potency,[1],active: 0.383 µM
same,Potency,[2],active: 0.432 µM
same,Potency,[3],active: 1.72 µM
same,Potency,[4],active: 0.769 µM
same,Potency,[20],active: 0.562 µM
same,Potency,[5],active: 1.78 µM
same,Potency,[13],"inconclusive: 3.16 µM [cytotoxic, partial curve, poor fit]"
same,Potency,[15],active: 0.891 µM
same,Potency,[14],active: 1.41 µM
same,Potency,[17],"inconclusive: 2.24 µM [cytotoxic, full curve, poor fit]"
same,Potency,[6],active: 4.47 µM
same,Potency,[7],active: 1.78 µM
same,Potency,[8],"inconclusive: 0.562 µM [cytotoxic, full curve, poor fit]"
same,Potency,[9],active: 0.562 µM
CCc1nc(C(N)=O)c(Nc2ccc(N3CCC(N4CCN(C)CC4)CC3)c(OC)c2)nc1NC1CCOCC1,Potency,[2],"inconclusive: 2.27 µM [inhibitor, full curve] and active: 5.24 µM"
same,Potency,[3],"active: 2.55 µM and inconclusive: 13.2 µM [inhibitor, partial curve]"
same,Potency,[4],"inconclusive: 1.8 µM [inhibitor, full curve]"
same,Potency,[20],"inconclusive: 1.26 µM [cytotoxic, full curve]"
same,Potency,[5],"inconclusive: 11.2 µM [cytotoxic, partial curve, poor fit]"
same,Potency,[13],active: 7.08 µM
same,Potency,[16],active: 3.55 µM
same,Potency,[14],"inconclusive: 7.94 µM [cytotoxic, partial curve, poor fit]"
same,Potency,[7],active: 2.24 µM
same,Potency,[8],active: 1.12 µM
same,Potency,[9],"inconclusive: 2.82 µM [cytotoxic, full curve]"
same,Potency,[10],"inconclusive: 10 µM [cytotoxic, partial curve]"
C[C@H]1[C@H](O)O[C@@H]2O[C@@]3(C)CC[C@H]4[C@H](C)CC[C@@H]1[C@@]24OO3,Potency,[11],active: 11.6 µM
same,Potency,[1],active: 0.833 µM
same,Potency,[2],"inconclusive: 23.1 µM [inhibitor, partial curve, poor fit]"
same,Potency,[3],active: 6.51 µM
same,Potency,[19],active: 13 µM
same,Potency,[20],"inconclusive: 35.5 µM [cytotoxic, single point]"
same,Potency,[5],"inconclusive: 35.5 µM [cytotoxic, single point]"
same,Potency,[13],"inconclusive: 39.8 µM [cytotoxic, single point]"
same,Potency,[15],"inconclusive: 20 µM [cytotoxic, partial curve]"
same,Potency,[16],active: 12.6 µM
same,Potency,[14],active: 8.91 µM
same,Potency,[17],"inconclusive: 39.8 µM [cytotoxic, single point]"
same,Potency,[7],"inconclusive: 10 µM [cytotoxic, partial curve, poor fit]"
same,Potency,[8],"inconclusive: 39.8 µM [cytotoxic, single point]"
same,Potency,[9],active: 28.2 µM
same,Potency,[10],"inconclusive: 17.8 µM [cytotoxic, partial curve]"
N[C@@]1(C(=O)O)CC[C@H]2[C@H](C(=O)O)[C@H]21,Potency,[1],inactive
same,outcome,[2],inactive
same,Potency,[3],"inconclusive: 0.82 µM [inhibitor, partial curve, poor fit]"
same,max response,[4],inactive: 2.99%
same,Potency,[17],inactive
same,Potency,[8],"inconclusive: 20 µM [rising, single point]"
